The record followed here is PubChem BioAssay AID330 (DTP/NCI, 2004).

Inconclusive results and toxic doses are left out. Some entries of the source have several records that differ or are many. Only these are listed. The source may hold further records. The records of an entry do not match, cause unknown; they may come from other doses, times, organisms or constructs than stated.

The assay deals with P388 leukemia ip, CD2F1 mice, survival T/C. Nature of the assay: NCI In Vivo Anticancer Drug Screen. Data for tumor model P388 Leukemia (intraperitoneal) in CD2F1 (CDF1) mice. As to conditions: endpoint: median survival time, higher = longer survival.

Consider `COc1ccc(C(=O)N/N=C(\C)[C@]2(O)Cc3c(O)c4c(c(O)c3[C@@H](OC3CC(N)C(O)C(C)O3)C2)C(=O)c2c(OC)cccc2C4=O)cc1` (stereo not given in full), for which, for the setting “dose: 8.0 mg/kg/injection, schedule: Q01DX009 (ip), vehicle: water”, the T/C was 120 % of control and 183 % of control.
On to `COc1cccc2c1C(=O)c1c(O)c3c(c(O)c1C2=O)CC(O)(C(=O)CO)CC3OC1CC(N)C(O)C(C)O1` (stereo not given), for which the T/C is 110 % of control and 165 % of control (dose: 11.7 mg/kg/injection, schedule: Q01DX009 (ip), vehicle: saline); 98 % of control and 153 % of control (dose: 46.8 mg/kg/injection, schedule: Q01DX009 (ip), vehicle: saline).
Regarding `COc1cccc2c1C(=O)c1c(O)c3c(c(O)c1C2=O)C[C@@](O)(C(C)O)C[C@@H]3OC1CC(N2CCOCC2)C(O)C(C)O1` (stereo not given in full), the T/C was 110 % of control and 153 % of control (dose: 200.0 micrograms/kg/injection, schedule: Q04DX003 (ip), vehicle: water); 115 % of control and 153 % of control (dose: 400.0 micrograms/kg/injection, schedule: Q04DX003 (ip), vehicle: water).
